# Assay results: the supplement of paper PMC4166925
# ± gives the standard deviation of the averaged measurements. The full ranking holds about 33,000 sequences; the median of “E-score (dimensionless, -0.5 to 0.5)” is about -0.046, and the highest 2% start at about 0.36. The list shows a part of the results.
# System: T1, SpTbr T-box DNA-binding domain (GST fusion)
# T1 sequence: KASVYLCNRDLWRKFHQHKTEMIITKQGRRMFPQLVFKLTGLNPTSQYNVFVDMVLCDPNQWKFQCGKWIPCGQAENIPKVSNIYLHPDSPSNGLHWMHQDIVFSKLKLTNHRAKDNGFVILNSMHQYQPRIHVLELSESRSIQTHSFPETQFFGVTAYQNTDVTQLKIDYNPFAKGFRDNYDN
# Experiment: PBM E-score of 8-mer (E-score (dimensionless, -0.5 to 0.5)); Tbr is Tbrain of the sea star Patiria miniata (Pm) or the sea urchin Strongylocentrotus purpuratus (Sp); higher = stronger binding preference; most listed sequences are background and not binding sites
# Conditions: the construct has about 5 more residues each side
# Method: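 Universal protein-binding microarray (Agilent AMADID 016060, 60-bp probes with a 35-bp variable region) incubated with 200 nM GST-fused Strongylocentrotus purpuratus Tbr T-box DNA-binding domain (residues 362-554) in PBS pH 7.5. Scored for every ungapped 8-mer (given with its reverse complement) as E-score (range -0.5 to 0.5; >0.45 counts as bound) and Z-score of median probe intensity. Two replicate arrays (datasets 1 and 2).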
# 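Note: protein at 200 nM in PBS on universal double-stranded arrays.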
row,Sequence,PBM E-score of 8-mer
1,TACCCCGA,-0.09 ± 0.0015
2,GTACAAAA,-0.168 ± 0.04
3,ACTCAAGG,-0.108 ± 0.013
4,ATTTCACC,0.0204 ± 0.024
5,CAACGTTC,0.0585 ± 0.1
6,CTTTCCTA,-0.298 ± 0.043
7,AGGTTGGA,-0.197 ± 0.0089
8,ATCGTGTG,0.221 ± 0.006
9,CTGTTGAA,-0.0895 ± 0.024
10,ACCGTCTC,0.063 ± 0.002
11,CCGTTGAC,0.296 ± 0.013
12,ACCGACCA,-0.169 ± 0.029
13,ATCAAGGA,-0.1417 ± 0.00036
14,AAAGATCA,-0.228 ± 0.15
15,ACACCTAC,0.462 ± 0.0061
16,ATGTAAAA,-0.171 ± 0.019
17,CCTTTCCC,-0.078 ± 0.009
18,CCATCTCG,-0.00959 ± 0.012
19,CTGGTGTA,0.104 ± 0.033
20,ACGATTGG,-0.21 ± 0.086
21,AGCGGTTA,0.0516 ± 0.0084
22,AGGGAGCG,-0.0291 ± 0.064

row,Sequence,PBM E-score of 8-mer
1,ATGCCTTC,-0.0248 ± 0.021
2,ATATTCAT,-0.205 ± 0.0041
3,CATACCGG,-0.163 ± 0.025
4,AAAATCAG,-0.234 ± 0.017
5,CAAGGTAA,-0.0662 ± 0.017
6,ATGGATTG,-0.209 ± 0.013
7,CTCTTATC,-0.00596 ± 0.037
8,CTTATCAA,0.0727 ± 0.015
9,GCTCTACA,-0.0837 ± 0.0077
10,AGTACTAC,-0.3701 ± 0.00051
11,AGAGAAGC,-0.204 ± 0.054
12,GGCTGGCA,-0.108 ± 0.066
13,AACCATCA,0.0714 ± 0.047
14,ATTCATAC,-0.0215 ± 0.0084
15,GATTTTAA,-0.14 ± 0.056
16,ACAACAGG,0.147 ± 0.037
17,CTAAAAAA,-0.0996 ± 0.066
18,ATGAGTGC,-0.0309 ± 0.056
19,ATGCAAAT,-0.132 ± 0.12
20,CTGCACAG,0.028 ± 0.032
21,GGGAAGAC,0.106 ± 0.0049
22,TAGCTAAA,-0.235 ± 0.044

row,Sequence,PBM E-score of 8-mer
1,AGGGATGG,-0.259 ± 0.011
2,AGTTTTGC,0.0924 ± 0.062
3,CGGACTAA,-0.123 ± 0.0069
4,CACACCAG,0.386 ± 0.036
5,ACGACGCA,-0.151 ± 0.08
6,AATCCCCA,0.114 ± 0.013
7,GGTACTAC,-0.3 ± 0.033
8,CTTCGGGC,-0.248 ± 0.054
9,AGTAGCCC,-0.239 ± 0.026
10,CGCAGTTC,0.119 ± 0.043
11,CCACTAAG,-0.0519 ± 0.021
12,AGTGGCAT,0.0645 ± 0.066
13,GCGAAGCA,0.16 ± 0.024
14,AGATTTTA,-0.0586 ± 0.042
15,TATTGGGA,-0.31517 ± 0.00024
16,GGAGGACC,-0.265 ± 0.0099
17,CACCGATG,-0.00494 ± 0.095
18,CCCGATTA,-0.0245 ± 0.038
19,AGGACTGC,-0.254 ± 0.032
20,AGACTCAG,-0.189 ± 0.057
21,GAATTCAC,0.14 ± 0.029
22,GTATCCAA,-0.16 ± 0.019

row,Sequence,PBM E-score of 8-mer
1,CACCGGAA,-0.0812 ± 0.0033
2,CCATGTGA,0.217 ± 0.044
3,AAATTAGA,-0.171 ± 0.025
4,TCCAATCA,-0.0327 ± 0.079
5,CTCGTTGA,0.153 ± 0.043
6,ATTGACAG,0.102 ± 0.07
7,GAAAGTCC,-0.142 ± 0.031
8,ACCTTTGA,0.113 ± 0.031
9,ATCCTCAA,-0.102 ± 0.006
10,GCAATCGA,-0.0853 ± 0.0027
11,ACGTCATG,-0.133 ± 0.012
12,ATTACGCG,0.19 ± 0.028
13,ACCAGCGA,0.131 ± 0.068
14,CGGGTAAC,0.187 ± 0.054
15,CAGCCGCA,0.0502 ± 0.064
16,ACAAGGGT,-0.00938 ± 0.021
17,GGAACTCA,-0.223 ± 0.031
18,TCATGGAA,-0.0871 ± 0.023
19,AGTAGCAC,0.307 ± 0.053
20,AAGGATAG,-0.159 ± 0.051
